Reference: PubChem BioAssay (NCATS)
Inconclusive results, whose numbers are uncertain, are shown. Where the call is inconclusive, the potency comes from a doubtful curve fit.

Assays:
[1] = Primary qHTS for inhibitors of nuclear receptor binding SET domain protein 2 (NSD2) in an isogenic RCH-ACV NSD2 p.E1099K mutant (9B) (AID 1645876); further: nearly all actives have a fitted effect of over 70% in size
[2] = Primary qHTS for inhibitors of nuclear receptor binding SET domain protein 2 (NSD2) in an RCH-ACV wild type WT cells (2C) (AID 1645877); details: activity change, negative = cell killing: at 44.9 µM (top of the series; the call rests on the fitted dose curve and not on this point) unless noted; further: nearly all actives have a fitted effect of over 70% in size
[3] = Primary fluorescence-based thiol-reactive (MSTI) qHTS assay for identification of artifact compounds. (AID 1845221);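 further: thiol-reactive compounds lower the probe fluorescence signal; nearly all actives have a fitted effect of over 65% in size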
Procedure, shortened: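 Thiol-reactive compounds detected by quenching of 4 uM MSTI fluorescence (525/598 nm) after 1 h room-temperature dark incubation in PBS pH 7.4, 2% DMSO. qHTS titration; percent inhibition Hill-fitted against Acetyl-MSTI/MSTI controls.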

[4] = Primary redox qHTS assay for identification of artifact compounds. (AID 1845223); details: Amplex Red/HRP redox cycling with DTT, fluorescence; series mostly up to 53.8 µM
Procedure, shortened: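 Amplex Red (25 uM) and HRP (250 mU/mL) in HBSS, with compounds for 15 min, then 250 uM DTT for 30 min, room temperature, dark. Fluorescence 525/598 nm read; normalized to DMSO and 10 uM DA3003; Hill fit.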

CRL-7250 = normal cell line; test: Cytotoxic Profiling of Annotated Libraries Using Quantitative High-Throughput Screening (AID 1296008); details: Five cell lines viability, CellTiter-Glo ATP luminescence, 48-72 h; max response: active compounds read low; further: nearly all actives have a fitted effect of over 60% in size
Procedure, shortened: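 Compounds were pin-transferred onto cells and incubated 48 or 72 hr at 37 degree Celsius, 95% humidity. CellTiter-Glo was added, plates sat 10 min at room temperature, then ATP-coupled luminescence was imaged as the viability read-out.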

Hek293T = test: Primary qHTS to identify gynecologic anti-cancer compounds using libraries of approved drugs and bioactive compounds (AID 1345084); details: Gynecologic cancer cell panel viability, ATPlite luminescence, 48 h, control line for the selectivity index; series mostly up to 57.5 µM; further: nearly all actives have a fitted effect of over 55% in size
Procedure, shortened: (§1)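 Five-point cytotoxicity, 48 h drug exposure at 37 C, 5% CO2, on cells seeded 16 h beforehand. ATP content read by ATPlite luminescence.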

SKOV3 = test: as above; details: Gynecologic cancer cell panel viability, ATPlite luminescence, 48 h; series mostly up to 57.5 µM
Procedure, shortened: as §1

Measured: Potency
Potency means the concentration at half of the fitted maximal effect; tags describe the fitted curve by direction and shape.

COc1c(/C=C/C(C)(C)O)ccc2c1C(=O)OCc1cc(C)cc(O)c1O2
inconclusive: [1] 5.67 µM [inhibitor, partial curve] | [2] 11.3 µM [inhibitor, partial curve] | [3] 14.7 µM [inhibitor, partial curve, poor fit] | [4] 26.1 µM [activator, single point] | CRL-7250 = 14.3 µM [inhibitor, single point] | Hek293T 22.4 µM [cytotoxic, single point] | SKOV3 = 31.6 µM [cytotoxic, partial curve, poor fit]
